This is an account of results in paper PMC4227774, “RppH-dependent pyrophosphohydrolysis of mRNAs is regulated by direct interaction with DapF in Escherichia coli” (Nucleic Acids Research, 2014).

No constants are given. Whether binding was seen depends on the method and setting. For some of these results: Binding seen in cells or lysates may run through a third protein. Some entries that bind do so weakly or less than the wild type. For some of these results: Tags and fused reporters may be left off the sequences shown.

B1: RppH, endogenous in wild-type MG1655 crude extract (enzyme, UniProt P0A776 1-176)
chain: MIDDDGYRPNVGIVICNRQGQVMWARRFGQHSWQFPQGGINPGESAEQAMYRELFEEVGLSRKDVRILASTRNWLRYKLPKRLVRWDTKPVCIGQKQKWFLLQLVSGDAEINMQTSSTPEFDGWRWVSYWYPVRQVVSFKRDVYRRVMKEFASVVMSLQENTPKPQNASAYRRKRG
B2: RppH in the crude extract of RppH-overexpressing cells (enzyme, UniProt P0A776 1-176)
chain: B1 chain
B3: DapF, diaminopimelate (DAP) epimerase, endogenous in MG1655 crude extract (enzyme, UniProt P0A6K1 1-274)
chain: MQFSKMHGLGNDFMVVDAVTQNVFFSPELIRRLADRHLGVGFDQLLVVEPPYDPELDFHYRIFNADGSEVAQCGNGARCFARFVRLKGLTNKRDIRVSTANGRMVLTVTDDDLVRVNMGEPNFEPSAVPFRANKAEKTYIMRAAEQTILCGVVSMGNPHCVIQVDDVDTAAVETLGPVLESHERFPERANIGFMQVVKREHIRLRVYERGAGETQACGSGACAAVAVGIQQGLLAEEVRVELPGGRLDIAWKGPGHPLYMTGPAVHVYDGFIHL
B4: T18-DapF (enzyme, UniProt P0A6K1 1-274)
chain: B3 chain
B5: DapF, diaminopimelate (DAP) epimerase, purified (enzyme, E. coli, UniProt P0A6K1 1-274, looked up)
chain: B3 chain
notes: DapF, diaminopimelate epimerase, E. coli; The text sets 'purified DapF' (untagged) against His-DapF in the pull-downs; also called purified DapF; untagged DapF; source: purified
B6: DapF co-expressed with His-RppH from pDuet-RD (enzyme, E. coli, UniProt P0A6K1 1-274, looked up)
chain: B3 chain
notes: DapF, diaminopimelate epimerase, E. coli; source: E. coli ER2566 harboring pDuet-RD (from the pET-duet vector), in crude extract
B7: RppH, RNA pyrophosphohydrolase, purified (enzyme, E. coli, UniProt P0A776 1-176, looked up)
chain: B1 chain
notes: RppH (NudH), RNA pyrophosphohydrolase, E. coli; Named only 'RppH' in gel filtration, SPR and the activity assays; The methods describe only the purification of His-RppH, so this may be the same protein as m1; also called purified RppH; NudH; source: purified

The target in experiment [1] is T1, His6-DapF (DapF with an N-terminal 6His-tag) (E. coli) (UniProt P0A6K1).
T1 sequence: B3 chain
Description: pull-down; purified His-DapF (or untagged DapF as control) mixed with crude extract of wild-type MG1655 or of RppH-overexpressing cells, TALON metal affinity resin; only the target purified.

In experiment [2] the target is T2, His6-RppH (6His-tagged form of RppH, RNA pyrophosphohydrolase) (E. coli) (UniProt P0A776).
T2 sequence: B1 chain
The experiment is described as follows: pull-down; ligand fishing: 500 μg purified His-RppH as bait mixed with MG1655 crude extract, TALON metal affinity resin, 50 mM Tris-HCl pH 8.0, 300 mM NaCl, eluted with 200 mM imidazole; SDS-PAGE with Coomassie, band identified by peptide mapping of tryptic digests; only the target purified.

Another experiment concerns the target T3, T25-RppH (E. coli) (UniProt P0A776).
T3 sequence: B1 chain
The experiment is described as follows: two-hybrid; bacterial two-hybrid (BACTH), reconstitution of B. pertussis adenylyl cyclase from T18 and T25 in cya-deficient E. coli BTH101; colour on LB X-gal plates, 30°C overnight.

In experiment [3] the target is T4, His-enzyme IIA^Ntr (E. coli) (UniProt P69829).
T4 sequence: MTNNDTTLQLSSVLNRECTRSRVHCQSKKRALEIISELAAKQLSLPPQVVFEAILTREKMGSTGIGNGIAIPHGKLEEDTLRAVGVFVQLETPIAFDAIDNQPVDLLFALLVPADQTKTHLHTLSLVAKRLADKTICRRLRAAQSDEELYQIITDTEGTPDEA
Description: pull-down; purified DapF mixed with varying amounts of His-RppH or the control protein His-enzyme IIA^Ntr on the metal affinity resin; band intensities on gel; both purified.

The target of experiment [4] is T5, His-RppH co-expressed with DapF from pDuet-RD (E. coli) (UniProt P0A776).
T5 sequence: B1 chain
The experiment is described as follows: pull-down; DapF and His-RppH co-expressed from pDuet-RD in E. coli ER2566; crude extract loaded onto a TALON metal affinity column; SDS-PAGE.

Experiment [5] addresses B7. The experiment is described as follows: SEC; Superose 12 10/300 GL, 50 mM Tris-HCl pH 8.0, 100 mM NaCl, room temperature, 0.5 ml/min; 50 μg RppH, 400 μg DapF (or 100 μg DapF(C73&217A)) or both in 250 μl, incubated 10 min on ice; fractions on SDS-PAGE; both purified.

In the case of B1, the binding entry in experiment [1] is “binds”.

Regarding B2, in experiment [1], the binding entry is listed as “binds”.

For B3, the binding result in experiment [2] is “binds”.

On to B4, for which the binding entry with T25-RppH (E. coli) is “binds”.

For B5, the binding result in experiment [3] is “no binding”.

Turning to B6, the binding entry in experiment [4] is on record as “binds”.

For B7, in experiment [5], the binding result is “no binding (tested: 50 μg in 250 μl)”.
